Test results published in patent US20110319597A1 (CAPHALON AUSTRALIA, published 2011).
Values belong to the binder of their own block, whether it stands above or below them.

Molecular target: T1, recombinant human TNFα (CytoLab) (human, UniProt P01375 fragment)
T1 construct: coated on the ELISA plate at 1 µg/ml; also called Tumour necrosis factor alpha
Experiment: ELISA on coated human TNFα

T1 sequence (P01375 77-233 limits assumed): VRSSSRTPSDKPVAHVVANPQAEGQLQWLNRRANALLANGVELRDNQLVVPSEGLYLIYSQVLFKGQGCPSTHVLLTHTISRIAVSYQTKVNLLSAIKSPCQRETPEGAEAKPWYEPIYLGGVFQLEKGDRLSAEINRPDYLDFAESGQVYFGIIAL

A450 (AU): 0.263 AU
B3: TNFα dAb Fc variant G64H (Fc fusion, name in Kabat numbering)
chain: DIQMTQSPSSLSASVGDRVTITCRASQAIDSYLHWYQQKPGKAPKLLIYSASNLETGVPSRFSHSGSGTDFTLTISSLLPEDFATYYCQQVVWRPFTFGQGTKVEIKRV[human IgG1 Fc with changes left out]

A450 (AU): 0.208 AU
B5: TNFα dAb Fc variant F71L (Fc fusion, name in Kabat numbering)
chain: DIQMTQSPSSLSASVGDRVTITCRASQAIDSYLHWYQQKPGKAPKLLIYSASNLETGVPSRFSGSGSGTDLTLTISSLLPEDFATYYCQQVVWRPFTFGQGTKVEIKRV[human IgG1 Fc with changes left out]

A450 (AU): 0.191 AU
B6: TNFα dAb Fc variant F71Q (Fc fusion, name in Kabat numbering)
chain: DIQMTQSPSSLSASVGDRVTITCRASQAIDSYLHWYQQKPGKAPKLLIYSASNLETGVPSRFSGSGSGTDQTLTISSLLPEDFATYYCQQVVWRPFTFGQGTKVEIKRV[human IgG1 Fc with changes left out]

A450 (AU): 0.315 AU
B11: TNFα dAb Fc variant F71H (Fc fusion, name in Kabat numbering)
chain: DIQMTQSPSSLSASVGDRVTITCRASQAIDSYLHWYQQKPGKAPKLLIYSASNLETGVPSRFSGSGSGTDHTLTISSLLPEDFATYYCQQVVWRPFTFGQGTKVEIKRV[human IgG1 Fc with changes left out]

A450 (AU): 0.883 AU
B12: TNFα dAb Fc variant G41D (Fc fusion, name in Kabat numbering)
chain: DIQMTQSPSSLSASVGDRVTITCRASQAIDSYLHWYQQKPDKAPKLLIYSASNLETGVPSRFSGSGSGTDFTLTISSLLPEDFATYYCQQVVWRPFTFGQGTKVEIKRV[human IgG1 Fc with changes left out]

A450 (AU): 0.643 AU
B17: TNFα dAb Fc variant G64P (Fc fusion, name in Kabat numbering)
chain: DIQMTQSPSSLSASVGDRVTITCRASQAIDSYLHWYQQKPGKAPKLLIYSASNLETGVPSRFSPSGSGTDFTLTISSLLPEDFATYYCQQVVWRPFTFGQGTKVEIKRV[human IgG1 Fc with changes left out]

A450 (AU): 0.906 AU
B18: TNFα dAb Fc variant G41L (Fc fusion, name in Kabat numbering)
chain: DIQMTQSPSSLSASVGDRVTITCRASQAIDSYLHWYQQKPLKAPKLLIYSASNLETGVPSRFSGSGSGTDFTLTISSLLPEDFATYYCQQVVWRPFTFGQGTKVEIKRV[human IgG1 Fc with changes left out]

A450 (AU): 1.08 AU
B21: TNFα dAb Fc variant G57Y (Fc fusion, name in Kabat numbering)
chain: DIQMTQSPSSLSASVGDRVTITCRASQAIDSYLHWYQQKPGKAPKLLIYSASNLETYVPSRFSGSGSGTDFTLTISSLLPEDFATYYCQQVVWRPFTFGQGTKVEIKRV[human IgG1 Fc with changes left out]

A450 (AU): 0.163 AU
B22: TNFα dAb Fc variant G64Q (Fc fusion, name in Kabat numbering)
chain: DIQMTQSPSSLSASVGDRVTITCRASQAIDSYLHWYQQKPGKAPKLLIYSASNLETGVPSRFSQSGSGTDFTLTISSLLPEDFATYYCQQVVWRPFTFGQGTKVEIKRV[human IgG1 Fc with changes left out]

A450 (AU): 0.189 AU
B23: TNFα dAb Fc variant G64L (Fc fusion, name in Kabat numbering)
chain: DIQMTQSPSSLSASVGDRVTITCRASQAIDSYLHWYQQKPGKAPKLLIYSASNLETGVPSRFSLSGSGTDFTLTISSLLPEDFATYYCQQVVWRPFTFGQGTKVEIKRV[human IgG1 Fc with changes left out]

A450 (AU): 0.213 AU
B24: TNFα dAb Fc variant F71K (Fc fusion, name in Kabat numbering)
chain: DIQMTQSPSSLSASVGDRVTITCRASQAIDSYLHWYQQKPGKAPKLLIYSASNLETGVPSRFSGSGSGTDKTLTISSLLPEDFATYYCQQVVWRPFTFGQGTKVEIKRV[human IgG1 Fc with changes left out]

A450 (AU): 0.171 AU
B31: TNFα dAb Fc variant G64D (Fc fusion, name in Kabat numbering)
chain: DIQMTQSPSSLSASVGDRVTITCRASQAIDSYLHWYQQKPGKAPKLLIYSASNLETGVPSRFSDSGSGTDFTLTISSLLPEDFATYYCQQVVWRPFTFGQGTKVEIKRV[human IgG1 Fc with changes left out]

Further lines, the binder ahead of its results:

B1: TNFα dAb Fc variant L79V (Fc fusion, name in Kabat numbering)
chain: DIQMTQSPSSLSASVGDRVTITCRASQAIDSYLHWYQQKPGKAPKLLIYSASNLETGVPSRFSGSGSGTDFTLTISSLVPEDFATYYCQQVVWRPFTFGQGTKVEIKRV[human IgG1 Fc with changes left out]
A450 (AU): 1.44 AU

B2: TNFα dAb Fc variant E81S (Fc fusion, name in Kabat numbering)
chain: DIQMTQSPSSLSASVGDRVTITCRASQAIDSYLHWYQQKPGKAPKLLIYSASNLETGVPSRFSGSGSGTDFTLTISSLLPSDFATYYCQQVVWRPFTFGQGTKVEIKRV[human IgG1 Fc with changes left out]
A450 (AU): 0.787 AU

B4: TNFα dAb Fc variant F71A (Fc fusion, name in Kabat numbering)
chain: DIQMTQSPSSLSASVGDRVTITCRASQAIDSYLHWYQQKPGKAPKLLIYSASNLETGVPSRFSGSGSGTDATLTISSLLPEDFATYYCQQVVWRPFTFGQGTKVEIKRV[human IgG1 Fc with changes left out]
A450 (AU): 0.185 AU

B7: TNFα dAb Fc variant D82H (Fc fusion, name in Kabat numbering)
chain: DIQMTQSPSSLSASVGDRVTITCRASQAIDSYLHWYQQKPGKAPKLLIYSASNLETGVPSRFSGSGSGTDFTLTISSLLPEHFATYYCQQVVWRPFTFGQGTKVEIKRV[human IgG1 Fc with changes left out]
A450 (AU): 0.251 AU

B8: TNFα dAb Fc variant A84P (Fc fusion, name in Kabat numbering)
chain: DIQMTQSPSSLSASVGDRVTITCRASQAIDSYLHWYQQKPGKAPKLLIYSASNLETGVPSRFSGSGSGTDFTLTISSLLPEDFPTYYCQQVVWRPFTFGQGTKVEIKRV[human IgG1 Fc with changes left out]
A450 (AU): 0.178 AU

B9: TNFα dAb Fc variant F62A (Fc fusion, name in Kabat numbering)
chain: DIQMTQSPSSLSASVGDRVTITCRASQAIDSYLHWYQQKPGKAPKLLIYSASNLETGVPSRASGSGSGTDFTLTISSLLPEDFATYYCQQVVWRPFTFGQGTKVEIKRV[human IgG1 Fc with changes left out]
A450 (AU): 0.22 AU

B10: TNFα dAb Fc variant D82Y (Fc fusion, name in Kabat numbering)
chain: DIQMTQSPSSLSASVGDRVTITCRASQAIDSYLHWYQQKPGKAPKLLIYSASNLETGVPSRFSGSGSGTDFTLTISSLLPEYFATYYCQQVVWRPFTFGQGTKVEIKRV[human IgG1 Fc with changes left out]
A450 (AU): 0.265 AU

B13: TNFα dAb Fc variant E81P (Fc fusion, name in Kabat numbering)
chain: DIQMTQSPSSLSASVGDRVTITCRASQAIDSYLHWYQQKPGKAPKLLIYSASNLETGVPSRFSGSGSGTDFTLTISSLLPPDFATYYCQQVVWRPFTFGQGTKVEIKRV[human IgG1 Fc with changes left out]
A450 (AU): 0.761 AU

B14: TNFα dAb Fc variant E81D (Fc fusion, name in Kabat numbering)
chain: DIQMTQSPSSLSASVGDRVTITCRASQAIDSYLHWYQQKPGKAPKLLIYSASNLETGVPSRFSGSGSGTDFTLTISSLLPDDFATYYCQQVVWRPFTFGQGTKVEIKRV[human IgG1 Fc with changes left out]
A450 (AU): 0.799 AU

B15: TNFα dAb Fc variant A84K (Fc fusion, name in Kabat numbering)
chain: DIQMTQSPSSLSASVGDRVTITCRASQAIDSYLHWYQQKPGKAPKLLIYSASNLETGVPSRFSGSGSGTDFTLTISSLLPEDFKTYYCQQVVWRPFTFGQGTKVEIKRV[human IgG1 Fc with changes left out]
A450 (AU): 0.292 AU

B16: TNFα dAb Fc variant F62Q (Fc fusion, name in Kabat numbering)
chain: DIQMTQSPSSLSASVGDRVTITCRASQAIDSYLHWYQQKPGKAPKLLIYSASNLETGVPSRQSGSGSGTDFTLTISSLLPEDFATYYCQQVVWRPFTFGQGTKVEIKRV[human IgG1 Fc with changes left out]
A450 (AU): 0.184 AU

B19: TNFα dAb Fc variant A43D (Fc fusion, name in Kabat numbering)
chain: DIQMTQSPSSLSASVGDRVTITCRASQAIDSYLHWYQQKPGKDPKLLIYSASNLETGVPSRFSGSGSGTDFTLTISSLLPEDFATYYCQQVVWRPFTFGQGTKVEIKRV[human IgG1 Fc with changes left out]
A450 (AU): 0.661 AU

B20: TNFα dAb Fc variant A84D (Fc fusion, name in Kabat numbering)
chain: DIQMTQSPSSLSASVGDRVTITCRASQAIDSYLHWYQQKPGKAPKLLIYSASNLETGVPSRFSGSGSGTDFTLTISSLLPEDFDTYYCQQVVWRPFTFGQGTKVEIKRV[human IgG1 Fc with changes left out]
A450 (AU): 0.177 AU

B25: TNFα dAb Fc variant D82L (Fc fusion, name in Kabat numbering)
chain: DIQMTQSPSSLSASVGDRVTITCRASQAIDSYLHWYQQKPGKAPKLLIYSASNLETGVPSRFSGSGSGTDFTLTISSLLPELFATYYCQQVVWRPFTFGQGTKVEIKRV[human IgG1 Fc with changes left out]
A450 (AU): 0.244 AU

B26: TNFα dAb Fc variant D82K (Fc fusion, name in Kabat numbering)
chain: DIQMTQSPSSLSASVGDRVTITCRASQAIDSYLHWYQQKPGKAPKLLIYSASNLETGVPSRFSGSGSGTDFTLTISSLLPEKFATYYCQQVVWRPFTFGQGTKVEIKRV[human IgG1 Fc with changes left out]
A450 (AU): 0.346 AU

B27: TNFα dAb Fc variant D70K (Fc fusion, name in Kabat numbering)
chain: DIQMTQSPSSLSASVGDRVTITCRASQAIDSYLHWYQQKPGKAPKLLIYSASNLETGVPSRFSGSGSGTKFTLTISSLLPEDFATYYCQQVVWRPFTFGQGTKVEIKRV[human IgG1 Fc with changes left out]
A450 (AU): 0.977 AU

B28: TNFα dAb Fc variant A43P (Fc fusion, name in Kabat numbering)
chain: DIQMTQSPSSLSASVGDRVTITCRASQAIDSYLHWYQQKPGKPPKLLIYSASNLETGVPSRFSGSGSGTDFTLTISSLLPEDFATYYCQQVVWRPFTFGQGTKVEIKRV[human IgG1 Fc with changes left out]
A450 (AU): 0.825 AU

B29: TNFα dAb Fc variant F62S (Fc fusion, name in Kabat numbering)
chain: DIQMTQSPSSLSASVGDRVTITCRASQAIDSYLHWYQQKPGKAPKLLIYSASNLETGVPSRSSGSGSGTDFTLTISSLLPEDFATYYCQQVVWRPFTFGQGTKVEIKRV[human IgG1 Fc with changes left out]
A450 (AU): 0.206 AU

B30: TNFα dAb Fc variant D70P (Fc fusion, name in Kabat numbering)
chain: DIQMTQSPSSLSASVGDRVTITCRASQAIDSYLHWYQQKPGKAPKLLIYSASNLETGVPSRFSGSGSGTPFTLTISSLLPEDFATYYCQQVVWRPFTFGQGTKVEIKRV[human IgG1 Fc with changes left out]
A450 (AU): 0.349 AU
